According to the supplement of paper PMC8728848:
This is one part of the list.

Key:
Assay in all cases: glycan array binding signal (z-score within array); higher = stronger binding
Conditions in all cases: glycan notation: IUPAC condensed, linker removed
[1] = biological target: Gal(b1-4)GlcNAc(b1-2)[Gal(b1-4)GlcNAc(b1-6)]Man(a1-6)[Gal(b1-4)GlcNAc(b1-2)Man(a1-3)]Man(b1-4)GlcNAc(b1-4)[Fuc(a1-6)]GlcNAc
Method in brief: (§1)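 Negative Z-scores can be read as non-binding. The Z-score is calculated within each array and then averaged across arrays of one protein sequence at different concentrations or buffers and across linkers. Arrays, 3228 in all, were curated from the Consortium for Functional Glycomics database and kept only where the protein sequence was available.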

[2] = biological target: Gal(b1-4)GlcNAc(b1-2)[Gal(b1-4)GlcNAc(b1-6)]Man(a1-6)[GlcNAc(b1-4)][Gal(b1-4)GlcNAc(b1-2)Man(a1-3)]Man(b1-4)GlcNAc(b1-4)GlcNAc
Method in brief: as §1

[3] = biological target: Gal(b1-4)GlcNAc(b1-2)[Gal(b1-4)GlcNAc(b1-6)]Man(a1-6)[GlcNAc(b1-4)][Gal(b1-4)GlcNAc(b1-2)[Gal(b1-4)GlcNAc(b1-4)]Man(a1-3)]Man(b1-4)GlcNAc(b1-4)[Fuc(a1-6)]GlcNAc
Method in brief: as §1

[4] = biological target: Gal(b1-4)GlcNAc(b1-3)Gal(b1-3)GalNAc
Method in brief: as §1

[5] = biological target: Gal(b1-4)GlcNAc(b1-3)Gal(b1-3)GlcNAc
Method in brief: as §1

[6] = biological target: Gal(b1-4)GlcNAc(b1-3)Gal(b1-4)Glc
Method in brief: as §1

[7] = biological target: Gal(b1-4)GlcNAc(b1-3)Gal(b1-4)GlcNAc
Method in brief: as §1

[8] = biological target: Gal(b1-4)GlcNAc(b1-3)Gal(b1-4)GlcNAc(b1-2)Man(a1-3)[Gal(b1-4)GlcNAc(b1-3)Gal(b1-4)GlcNAc(b1-2)Man(a1-6)]Man(b1-4)GlcNAc(b1-4)GlcNAc
Method in brief: as §1

[9] = biological target: Gal(b1-4)GlcNAc(b1-3)Gal(b1-4)GlcNAc(b1-2)Man(a1-3)[Gal(b1-4)GlcNAc(b1-3)Gal(b1-4)GlcNAc(b1-2)Man(a1-6)]Man(b1-4)GlcNAc(b1-4)[Fuc(a1-6)]GlcNAc
Method in brief: as §1

[10] = biological target: Gal(b1-4)GlcNAc(b1-3)Gal(b1-4)GlcNAc(b1-2)[Gal(b1-4)GlcNAc(b1-3)Gal(b1-4)GlcNAc(b1-6)]Man(a1-6)[Gal(b1-4)GlcNAc(b1-3)Gal(b1-4)GlcNAc(b1-2)Man(a1-3)]Man(b1-4)GlcNAc(b1-4)GlcNAc
Method in brief: as §1

[11] = biological target: Gal(b1-4)GlcNAc(b1-3)Gal(b1-4)GlcNAc(b1-2)[Gal(b1-4)GlcNAc(b1-3)Gal(b1-4)GlcNAc(b1-6)]Man(a1-6)[Gal(b1-4)GlcNAc(b1-3)Gal(b1-4)GlcNAc(b1-2)Man(a1-3)]Man(b1-4)GlcNAc(b1-4)[Fuc(a1-6)]GlcNAc
Method in brief: as §1

[12] = biological target: Gal(b1-4)GlcNAc(b1-3)Gal(b1-4)GlcNAc(b1-3)Gal(b1-4)GlcNAc
Method in brief: as §1

[13] = biological target: Gal(b1-4)GlcNAc(b1-3)Gal(b1-4)GlcNAc(b1-3)Gal(b1-4)GlcNAc(b1-2)Man(a1-3)[Gal(b1-4)GlcNAc(b1-3)Gal(b1-4)GlcNAc(b1-3)Gal(b1-4)GlcNAc(b1-2)Man(a1-6)]Man(b1-4)GlcNAc(b1-4)GlcNAc
Method in brief: as §1

[14] = biological target: Gal(b1-4)GlcNAc(b1-3)Gal(b1-4)GlcNAc(b1-3)Gal(b1-4)GlcNAc(b1-2)Man(a1-3)[Gal(b1-4)GlcNAc(b1-3)Gal(b1-4)GlcNAc(b1-3)Gal(b1-4)GlcNAc(b1-2)Man(a1-6)]Man(b1-4)GlcNAc(b1-4)[Fuc(a1-6)]GlcNAc
Method in brief: as §1

[15] = biological target: Gal(b1-4)GlcNAc(b1-3)Gal(b1-4)GlcNAc(b1-3)Gal(b1-4)GlcNAc(b1-2)[Gal(b1-4)GlcNAc(b1-3)Gal(b1-4)GlcNAc(b1-3)Gal(b1-4)GlcNAc(b1-6)]Man(a1-6)[Gal(b1-4)GlcNAc(b1-3)Gal(b1-4)GlcNAc(b1-3)Gal(b1-4)GlcNAc(b1-2)Man(a1-3)]Man(b1-4)GlcNAc(b1-4)[Fuc(a1-6)]GlcNAc
Method in brief: as §1

[16] = biological target: Gal(b1-4)GlcNAc(b1-3)Gal(b1-4)GlcNAc(b1-3)Gal(b1-4)GlcNAc(b1-3)Gal(b1-4)GlcNAc(b1-2)Man(a1-3)[Gal(b1-4)GlcNAc(b1-3)Gal(b1-4)GlcNAc(b1-3)Gal(b1-4)GlcNAc(b1-3)Gal(b1-4)GlcNAc(b1-2)Man(a1-6)]Man(b1-4)GlcNAc(b1-4)GlcNAc
Method in brief: as §1

[17] = biological target: Gal(b1-4)GlcNAc(b1-3)Gal(b1-4)GlcNAc(b1-3)Gal(b1-4)GlcNAc(b1-3)Gal(b1-4)GlcNAc(b1-2)Man(a1-3)[Gal(b1-4)GlcNAc(b1-3)Gal(b1-4)GlcNAc(b1-3)Gal(b1-4)GlcNAc(b1-3)Gal(b1-4)GlcNAc(b1-2)Man(a1-6)]Man(b1-4)GlcNAc(b1-4)[Fuc(a1-6)]GlcNAc
Method in brief: as §1

[18] = biological target: Gal(b1-4)GlcNAc(b1-3)Gal(b1-4)GlcNAc(b1-3)Gal(b1-4)GlcNAc(b1-3)Gal(b1-4)GlcNAc(b1-2)[Gal(b1-4)GlcNAc(b1-3)Gal(b1-4)GlcNAc(b1-3)Gal(b1-4)GlcNAc(b1-3)Gal(b1-4)GlcNAc(b1-6)]Man(a1-6)[Gal(b1-4)GlcNAc(b1-3)Gal(b1-4)GlcNAc(b1-3)Gal(b1-4)GlcNAc(b1-3)Gal(b1-4)GlcNAc(b1-2)Man(a1-3)]Man(b1-4)GlcNAc(b1-4)[Fuc(a1-6)]GlcNAc
Method in brief: as §1

[19] = biological target: Gal(b1-4)GlcNAc(b1-3)Gal(b1-4)GlcNAc(b1-3)Gal(b1-4)GlcNAc(b1-3)Gal(b1-4)GlcNAc(b1-3)Gal(b1-4)GlcNAc(b1-2)Man(a1-3)[Gal(b1-4)GlcNAc(b1-3)Gal(b1-4)GlcNAc(b1-3)Gal(b1-4)GlcNAc(b1-3)Gal(b1-4)GlcNAc(b1-3)Gal(b1-4)GlcNAc(b1-2)Man(a1-6)]Man(b1-4)GlcNAc(b1-4)GlcNAc
Method in brief: as §1

B1: Epa1to9 (Candida glabrata) (protein)
chain: MGSSHHHHHHSSGLVPRGSHMTSSNDISLASKDPTTFPLGCSPDITTPKKGLSMELYSYDFRKKGSYPCWDAAYLDPNYPRTGYKSHRLLAKVDGVTGNINFYYHATKGCTPQLGHLPASYNYPKPLTMTNFTMLLYGYFRPKVTGFHTFTISADDLLFVNFGAGNAFDCCRRDSSADHFGNYQAYAIWGSKTAKDELTVHLDAGVYYPIRLFYNNRDYHGALSFTFKTESNENTVSDFSEYFFSLDDTEEGCPGLISYD
Q: Which results are given for B1?
A: glycan array binding signal (z-score) [1]: 3.13; glycan array binding signal (z-score) [2]: 0.13; glycan array binding signal (z-score) [3]: 0.964; glycan array binding signal (z-score) [4]: -0.14; glycan array binding signal (z-score) [5]: -0.107; glycan array binding signal (z-score) [6]: 0.277; glycan array binding signal (z-score) [7]: -0.064; glycan array binding signal (z-score) [8]: 0.178; glycan array binding signal (z-score) [9]: 0.45; glycan array binding signal (z-score) [10]: 0.64; glycan array binding signal (z-score) [11]: 0.816; glycan array binding signal (z-score) [12]: -0.034; glycan array binding signal (z-score) [13]: 0.169; glycan array binding signal (z-score) [14]: 0.269; glycan array binding signal (z-score) [15]: 0.533; glycan array binding signal (z-score) [16]: -0.075; glycan array binding signal (z-score) [17]: 0.011; glycan array binding signal (z-score) [18]: 0.242; glycan array binding signal (z-score) [19]: 0.122
